# Measurements from PubChem BioAssay AID902 (National Center for Advancing Translational Sciences (NCATS), 2007).
# Hit rate of the full screen: of about 130,000 compounds, about 1,900 (1.5%) were called active. Inconclusive results, whose numbers are uncertain, are shown with a selection of clear calls. Calls follow the shape of the dose curve; as a rule, active = well fitted cell-killing curve with a large enough effect; inconclusive = small, poorly fitted or top-dose-only effect; inactive = no such curve, though single readings can be large or run the other way. A potency beside an inconclusive call is a rough fit, not a confirmed value.
# Test: qHTS Screen for Compounds that Selectively Target Cancer Cells with p53 Mutations: Cytotoxicity of p53ts Cells at the Nonpermissive Temperature; also: nearly all actives have a fitted effect of over 55% in size
# Settings: H1299-p53A138V viability at 39C, ATP luminescence, 24 h; activity change, negative = cell killing: at 46.1 µM (top of the series)
# % is scaled to controls: 0 for no effect and ±100 for the full control effect; potency is read from the fitted curve at half-maximal effect; tags tell the direction and shape of the fitted curve.
Compound,Potency,"activity change, negative = cell killing"
COc1ccc(CCN2C(=O)c3[nH]nc(-c4ccccc4O)c3C2c2ccccc2)cc1 (centres undefined),"inconclusive: 12.6 µM [cytotoxic, partial curve]",
COC(=O)c1ccc(C(/C=C/[C@@H](C)C(=O)N(C)C)NC(=O)OCc2ccccc2)cc1 (some centres undefined),,inactive: 1.53%
Cc1cc(Br)ccc1NC(=O)CSc1c2c(nc3ccccc13)CCC2,"inconclusive: 7.94 µM [cytotoxic, partial curve]",
O=C(Nc1nnc(/N=C/c2ccco2)s1)c1ccc(F)cc1,active: 12.6 µM,
COc1ccccc1N1CCN(c2ccc(=O)n(CC(=O)NCc3ccc(F)cc3)n2)CC1,,inactive: -22.1%
CC(=O)N1CCN(c2ccccc2NC(=O)COc2cc(C)ccc2C(C)C)CC1,"inconclusive: 31.6 µM [cytotoxic, single point]",
Cc1ccc2nc(SCc3nc(-c4ccc(Cl)cc4)no3)[nH]c2c1,"inconclusive: 11.2 µM [cytotoxic, single point]",
CCc1cc2c(cc3c(=O)n(CCCC(=O)NCc4cccc(Br)c4)ncn32)s1,"inconclusive: 15.8 µM [cytotoxic, partial curve]",
CCCCC12CN3CC(C)(CN(C1)C3c1c[nH]c3ccccc13)C2=O (centres undefined),,inactive: -17.3%
Cc1cc(C)n(-c2ccc(C(=O)Nc3ccccn3)cc2)n1,active: 10 µM,
COc1ccc(N2CCN(S(=O)(=O)c3ccc(-c4coc(C)n4)cc3)CC2)cc1,"inconclusive: 0.02 µM [cytotoxic, full curve, poor fit]",
COc1ccc(Cn2c(=O)c3oc4ccccc4c3n(CC(=O)Nc3c(C)cccc3C)c2=O)cc1,,inactive: 20.9%
CN(C)c1ccc(NC(=O)Cn2c(SCc3ccc(F)cc3)nc3ccncc32)cc1,"inconclusive: 12.6 µM [cytotoxic, partial curve]",
Cc1ccc(-c2cnc(-c3ccncc3)o2)cc1,"inconclusive: 12.6 µM [cytotoxic, partial curve]",
Cc1ccc2c(c1)c1c(c(=O)n(-c3ccccc3)c(=O)n1Cc1ccccc1C)n2C,"inconclusive: 12.6 µM [cytotoxic, single point]",
O=C(Nc1cccc(S(=O)(=O)C(F)F)c1)c1ccc(Cl)c(S(=O)(=O)N2CCOCC2)c1,"inconclusive: 25.1 µM [cytotoxic, single point]",
COc1ccc(CNC(=O)CSc2nnc(C)c3c(C)n(-c4ccccc4)nc23)c(OC)c1,active: 12.6 µM,
O=C(c1cc2c(Cl)nc3ccccc3c2s1)N1CCCCC1,"inconclusive: 1.26 µM [cytotoxic, full curve, poor fit]",
Oc1ccc(-c2nc3ccc(Cl)cn3c2Nc2ccc(Cl)cc2)cc1,"inconclusive: 31.6 µM [cytotoxic, single point]",
Cc1cccc(NC(=O)COc2ccc(Br)cc2C)n1,"inconclusive: 25.1 µM [cytotoxic, single point]",
COc1ccc(Cn2ccc3nc(C)c(C(=O)NCc4ccc(SC)cc4)cc3c2=O)cc1,"inconclusive: 2 µM [cytotoxic, partial curve]",
CC(=O)Nc1ccc(-c2nc3ccc(Cl)cc3[nH]2)cc1,"inconclusive: 15.8 µM [cytotoxic, partial curve]",
Oc1cc(O)cc(/C=C\c2ccc(O)c(O)c2)c1,"inconclusive: 10 µM [cytotoxic, partial curve]",

Compound,Potency,"activity change, negative = cell killing"
COc1ccc(-c2nc3sc(CCNC(=O)C(=O)Nc4ccc(OC)c(OC)c4)c(C)n3n2)cc1,"inconclusive: 25.1 µM [cytotoxic, partial curve]",
COc1ccc(CNC(=O)c2cc(-c3ccc(Br)s3)nc3ccccc23)cc1,active: 10 µM,
Cc1ccc(C)c(Nc2nn3c(=O)c4ccc(C(=O)NCc5ccccc5)cc4nc3s2)c1,active: 12.6 µM,
COc1ccccc1/C=C/C(=O)Nc1nc2n(n1)C(c1ccc(F)cc1)C=C(c1ccccc1)N2 (centres undefined),"inconclusive: 3.98 µM [cytotoxic, single point]",
O=S(=O)(NCC(c1ccccc1)N1CCc2ccccc21)c1ccc(Cl)cc1 (centres undefined),active: 25.1 µM,
CC(C)CCNc1nc(Nc2ccccc2)c2cnn(C)c2n1,"inconclusive: 31.6 µM [cytotoxic, single point]",
CN(C(=O)c1ccco1)c1nnc(C23CC4CC(CC(C4)C2)C3)s1,"inconclusive: 20 µM [cytotoxic, single point]",
Cc1ccsc1C(=O)OCc1csc(-c2ccccc2)n1,"inconclusive: 15.8 µM [cytotoxic, partial curve]",
COc1cccc(-c2cc(C(=O)NC3CCCC3)no2)c1,"inconclusive: 12.6 µM [cytotoxic, partial curve]",
Cc1cccc(N2CCN(c3nnnn3-c3ccccc3)CC2C)c1 (centres undefined),,inactive: -10.2%
CNC(=O)c1cc2c(cn1)[nH]c1ccccc12,"inconclusive: 10 µM [cytotoxic, partial curve]",
C[C@@H](/C=C\c1cccc(Oc2ccc(F)cc2)c1)N(O)C(N)=O,active: 31.6 µM,
N=C(N)c1ccc(/C=C\c2ccc(C(=N)N)cc2)cc1,,inactive: 7.13% [at 9.22 µM]
Cc1ccc2c(c1)C1C=CCC1C(C(=O)O)N2 (centres undefined),,inactive: -1.04%
O=C(NCCCN1CCN(c2ccccc2F)CC1)c1ccc2nc(CCc3ccccc3)oc2c1,"inconclusive: 20 µM [cytotoxic, partial curve]",
S=C(Nc1ccccn1)c1ccccn1,"inconclusive: 20 µM [cytotoxic, single point]",
Cc1ccc(-c2nn(CC(C)(C)C)c3ncnc(N)c23)cc1,"inconclusive: 1.26 µM [cytotoxic, full curve]",
COc1cccc2cc(C(=O)N3CCN(C(=O)c4ccco4)CC3)c(=O)oc12,,inactive: 4.83%
CCc1ccc(NC(=O)c2cc(S(=O)(=O)NC3CCCCCC3)ccc2F)cc1,"inconclusive: 22.4 µM [cytotoxic, single point]",
O=C1CC(O)(C(F)(F)F)Oc2c1ccc1ccccc21 (centres undefined),"inconclusive: 25.1 µM [cytotoxic, single point]",
Cc1c(Cl)cccc1NC(=O)C(=O)NCCc1csc2nc(-c3ccccc3F)nn12,"inconclusive: 12.6 µM [cytotoxic, partial curve]",
C[C@@H](CCCCC(=O)Nc1ccc(C(F)(F)F)cc1)NCCc1cnc[nH]1,"inconclusive: 31.6 µM [cytotoxic, partial curve]",
Cc1ccc(-c2nn(C)c(=O)c3ccccc23)cc1CNS(C)(=O)=O,,inactive: -2.93%

Compound,Potency,"activity change, negative = cell killing"
CCc1ccc(NC(=O)C(=O)NCC(c2ccc3c(c2)OCO3)N2CCN(C)CC2)cc1 (centres undefined),,inconclusive: -37.5% [cytotoxic]
Cc1onc(-c2ccccc2Cl)c1C(=O)Oc1ccc(Cl)cc1Cl,"inconclusive: 12.6 µM [cytotoxic, partial curve]",
CCOCc1cc(CN2CCN(c3cccc(C(F)(F)F)c3)CC2)c(O)c2ncccc12,"inconclusive: 2 µM [cytotoxic, full curve]",
COc1ccc(OC)c(S(=O)(=O)Nc2ccc(O)c3ccccc23)c1,active: 10 µM,
c1ccc(-c2noc(-c3cccc4ccccc34)n2)nc1,"inconclusive: 15.8 µM [cytotoxic, partial curve]",
N=C1Sc2ccccc2C2=NCCCN12,"inconclusive: 10 µM [cytotoxic, partial curve]",
CCC(C)S(=O)(=O)c1oc(-c2cccs2)nc1S(=O)(=O)c1ccccc1 (centres undefined),active: 1 µM,
O=C(Nc1cc(Cl)cc(Cl)c1)c1cc(S(=O)(=O)NC2CCCC2)ccc1F,"inconclusive: 12.6 µM [cytotoxic, single point]",
Cc1cccc(N2CCN(C(=O)C3CCN(C(=O)c4cc5sccc5n4C)CC3)CC2C)c1 (centres undefined),active: 12.6 µM,
Cc1ccc2c(c1)c1c(c(=O)n(Cc3ccccc3)c(=O)n1Cc1ccccc1F)n2C,,inactive: -20.5%
CCOc1ccc(N2CC(NC(=O)c3ccc(Cl)cc3)CC2=O)cc1 (centres undefined),"inconclusive: 0.199 µM [cytotoxic, full curve, poor fit]",
COc1ccc(-c2ccc(SCC(=O)N3CCOCC3)nn2)cc1OC,"inconclusive: 12.6 µM [cytotoxic, partial curve]",
Cc1cc(C)c(OCC(=O)N(Cc2ccc(N(C)C)cc2)Cc2ccco2)c(C)c1,,inactive: -14.3%
CCN1CCc2c(sc(NC(=O)c3ccc(S(=O)(=O)N4CCCC(C)C4)cc3)c2C(=O)OC)C1 (centres undefined),"inconclusive: 25.1 µM [cytotoxic, partial curve, poor fit]",
CCCCN(C)C(=O)c1ccc2c(=O)n3nc(Nc4cc(C)ccc4C)sc3nc2c1,,inactive: -7.58%
Cc1ccc(OCC(=O)N/N=C\c2c(C)[nH]n(-c3ccccc3)c2=O)c([N+](=O)[O-])c1,"inconclusive: 15.8 µM [cytotoxic, single point]",
COc1ccc(-c2noc(-c3ccco3)n2)cc1OC,,inactive: -8.73%
COc1ccc2nc(NC(=O)CSc3nc4cccnc4n3C)sc2c1,"inconclusive: 31.6 µM [cytotoxic, single point]",
COc1ccc(OC)c(NC(=O)c2nc(S(=O)(=O)Cc3ccc(F)cc3)ncc2Cl)c1,active: 10 µM,
CCc1ccc(C2CC(=O)Nc3c2c(=O)n(C)c2ncnn32)cc1 (centres undefined),,inactive: -15.3%
CCOCCCN(Cc1ccco1)C(=O)c1cc2c(s1)-c1c(C)cccc1OC2,"inconclusive: 0.316 µM [cytotoxic, full curve, poor fit]",
O=C(Nc1ccc(Cl)cc1)NC1CCCC1Cc1ccco1 (centres undefined),"inconclusive: 31.6 µM [cytotoxic, single point]",
CCCCOC(=O)c1ccc(-n2nnc3c(sc4nc(C)cc(C)c43)c2=O)cc1,,inactive: 4.01%
